Results taken from the RNAGym collection of RNA variant scans (doi:10.1093/nar/gkz1192).
The source gives no read counts; variants with many changes may rest on few reads.

B1: CPEB3 Ribozyme (parent)
chain: UAACAGGGGGCCACAGCAGAAGCGUUCACGUCGCAGCCCCUGUCAGAUUCUGGUGAAUCUGCGAAUUCUGCUGUAUAUCUC

Variants of: B1
Experiment: self-cleavage, relative activity (ratio to wild type); higher = more cleavage; in vitro, sequencing
Outline: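 CPEB3 self-cleaving ribozyme mutant libraries were made by rounds of error-prone PCR, barcoded, and transcribed in vitro with T7 RNA polymerase for 5 hours at 37°C. Cleavage occurred during transcription and a 15 min DNase I step before EDTA stop. RNAs were reverse transcribed with template switching and Illumina-sequenced, with DNA sequencing mapping barcodes to variants. Relative activity is the variant's cleaved/total read fraction divided by wild type's (minimum 5 reads), averaged across three batches.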
Work on UAACAGGGGGUCACAGCAGGAGCGUUCACGUCGCAGCCCCCGUCAGAUUCUGGUGAAUCUGCGAAUUCCGCUGUAUAUCUC [C11U A20G U41C U69C] yielded a self-cleavage of 0.18.
For UAACAGGGGGUCACAGCAGGAGCGUUCACGUCGCAGCCCCUGUCAGAUUCUGGUGAAUCUGCGAAUUCAGCUGUAUAUCUC [C11U A20G U69A], the self-cleavage was 0.17.
Work on UAACAGGGGGUCACAGCAGAGGCGUUCACGUCGCGGCCCCUGUCAGAUUCUGGUGAAGCUGCGAAUUCUGCUGUAUAUCUC [C11U A21G A35G U58G] yielded a self-cleavage of 0.47.
For UAACAGGGGGUCACAGCAGAGGCGUUCACGUCGCAGCCCCUGUCAGAUUCUGGUGAAUCUGCGAUUUCUGCUGUAUAUCUC [C11U A21G A65U], the self-cleavage was 0.21.
UAACAGGGGGUCACAGCAGAUGCGUUCGCGUCGCAGCCCCCGUCAGAUUCUAGUGAAUCUGCGGAUUCUGCUGUAUAUCUC [C11U A21U A28G U41C G52A A64G] showed a self-cleavage of 0.04.
For UAACAGGGGGUCACAGCAGAUGCGUUCACGUUGCAGCCCCUGUCAGAUUCUGGUGAAUCUGCGGAUUCUGCUGUAUACCAC [C11U A21U C32U A64G U78C U80A], the self-cleavage was 0.03.
Work on UAACAGGGGGUCACAGCAGAUGCGUUCACGACGCAGCCCCCGUCAGAUUCUGGAGAAUCUGCGAAUUCUGCUGUAUAUCUC [C11U A21U U31A U41C U54A] yielded a self-cleavage of 0.05.
UAACAGGGGGUCACAGCAGAAGCGUUCCCGUCGCAGCCCCUGUCAGUUUCUGGUGAACCUGCAUAUUCUGCUGUAUAUCUC [C11U A28C A47U U58C G63A A64U] showed a self-cleavage of 0.07.
Work on UAACAGGGGGUCACAGCAGAAGCGUUCCCGUCGCAGCCCCUGUCAGAUUCUGGUGAAUCUGCGAAUUCUGCUGAAUACCUC [C11U A28C U74A U78C] yielded a self-cleavage of 0.27.
UAACAGGGGGUCACAGCAGAAGCGUUCGCGUCGCGGCCCCCGUCAGAUUCUGGUGAAUCUGCGGAUUCUGCUGUAUAUCUC [C11U A28G A35G U41C A64G] showed a self-cleavage of 0.52.
UAACAGGGGGUCACAGCAGAAGCGUUCGUGUCGCAGCCCCUGUCAGAUUCUGGUGAAUCUGCGUAUUCUGCUGCGUAACUC [C11U A28G C29U A64U U74C A75G U78A] gave a self-cleavage of 0.03.
UAACAGGGGGUCACAGCAGAAGCGUUCGCGUCGCAGCCCCUGUCAGAUUCUGAUGGAUCUGCGAAUUCUGCUGUAUACCUC [C11U A28G G53A A56G U78C] showed a self-cleavage of 0.07.
UAACAGGGGGUCACAGCAGAAGCGUUCGCGUCGCAGCCCCUGUCAGAUUCAGGUGGAUCUGCGAAUUCUGCUGUAUAUCUC [C11U A28G U51A A56G] showed a self-cleavage of 0.13.
In the case of UAACAGGGGGUCACAGCAGAAGCGUUCUCGUCGCAGCCCCUGUCGGAUUCUGGUGAAUCAGCGUAUUCUGCUGUAUAUCUC [C11U A28U A45G U60A A64U], the self-cleavage is reported as 0.15.
With UAACAGGGGGUCACAGCAGAAGCGUUCUCGUCGCAGCCCCUGUCAGGUUCUGGUGAAUCUGCGAAUUCUGCAGUAUAUCCC [C11U A28U A47G U72A U80C] the self-cleavage was 0.42.
UAACAGGGGGUCACAGCAGAAGCGUUCACGUCGCCGCCCCUGUCAGAUUCUGGUGAAUCUGCGAAUUCUGCUGUAUAUCCC [C11U A35C U80C] showed a self-cleavage of 0.44.
For UAACAGGGGGUCACAGCAGAAGCGUUCACGUCGCGGCCCCAGUCAGACCCAGGUGAAUCUGCGAGUUCUGCUGUAUAUCUC [C11U A35G U41A U48C U49C U51A A65G], the self-cleavage was 0.14.
In the case of UAACAGGGGGUCACAGCAGAAGCGUUCACGUCGCGGCCCCUGCCAGAUUCUGGUGAAUCUGCAAAUUCUGCUGUAUAUCUC [C11U A35G U43C G63A], the self-cleavage is reported as 0.98.
UAACAGGGGGUCACAGCAGAAGCGUUCACGUCGCUGCCCCUGUCAGACUCUGGUGAAUCUGCGAAUUCUGCCGUUUAUCUC [C11U A35U U48C U72C A75U] showed a self-cleavage of 0.05.
With UAACAGGGGGUCACAGCAGAAGCGUUCACGUCGCAGCCCCUGUCGGAUUCCGGUGAAUCUGCGAAUUCUGCUGUAUAUCUC [C11U A45G U51C] the self-cleavage was 0.13.
UAACAGGGGGUCACAGCAGAAGCGUUCACGUCGCAGCCCCUGUCAGUUUCCGGUGAAUCUGCGUAUUCUGCUGUAUAUCUC [C11U A47U U51C A64U] gave a self-cleavage of 0.06.
In the case of UAACAGGGGGUCACAGCAGAAGCGUUCACGUCGCAGCCCCUGUCAGAUUCUGGUGGAUCCGCGAAUUCUGCUGUAUAUCCC [C11U A56G U60C U80C], the self-cleavage is reported as 0.15.
With UAACAGGGGGUAACAGCAGAAGCGUCCACUUCGCAGCCCCUGUCAGAUUCUGGUGAAUCCGCGAAUUCCGCUGUAUAUCUC [C11U C12A U26C G30U U60C U69C] the self-cleavage was 0.09.
In the case of UAACAGGGGGUGACAGCAGAAGCGUUCACGUCGCAGCCCCUGUCAGAUUCUGGUGAAUCUGCAAGUUCUGCCGUAUAUCUC [C11U C12G G63A A65G U72C], the self-cleavage is reported as 0.14.
UAACAGGGGGUCACAGUAGAAGCGUUCACGUCGCAGCCCCUGUCGGAUUCUGGUGAAUCUGCGAAUUCUGCUGUAUAUCUC [C11U C17U A45G] showed a self-cleavage of 0.37.
For UAACAGGGGGUCACAGCAGAAGGGUUCACGUCGCAGCCCCUGUCAGAUUCUCGUGAAUCUGCGAAUUCUGCUGUAUAUCUC [C11U C23G G52C], the self-cleavage was 0.05.
Variant UAACAGGGGGUCACAGCAGAAGCGUUAACGUCGCAGUCCCUGUCAGACUCUGGUGAAUCUGCGAACUCCGCUGUAUAUCUC [C11U C27A C37U U48C U66C U69C] has a self-cleavage of 0.03.
For UAACAGGGGGUCACAGCAGAAGCGUUCAUGUCGCAGCCCCUGUCAGAUUCUGGUGUGUCUGCGGAUUCUGCUGUAUAUCUC [C11U C29U A56U A57G A64G], the self-cleavage was 0.09.
In the case of UAACAGGGGGUCACAGCAGAAGCGUUCAUGUCGCAGCCCCUGUCAGAUCCUGGUUAAUCUUCGAAUUCUGCUGUAUAUCUC [C11U C29U U49C G55U G61U], the self-cleavage is reported as 0.05.
In the case of UAACAGGGGGUCACAGCAGAAGCGUUCACGUCGCAGUCCCUGUCAGAUUCUGGUGAAUCCGCGGAUUCUGCUGUAUAUCUC [C11U C37U U60C A64G], the self-cleavage is reported as 0.26.
In the case of UAACAGGGGGUCACAGCAGAAGCGUUCACGUCGCAGCCCGUGUCAGAUUCUGGUGAAUCUGCGAGUUCUGCCGAAUAUCUC [C11U C40G A65G U72C U74A], the self-cleavage is reported as 0.02.
Variant UAACAGGGGGUCACAACAGAAGCGUUCACGUCGCAGCCCCUGUAGGAUUCUGGUGAAUCUGCGAAUACUGCUGUAUAUCUC [C11U G16A C44A A45G U67A] has a self-cleavage of 0.07.
In the case of UAACAGGGGGUCACAGCAGAAACGUUCCCGACGCAGCCCCUGUCGGAUUCUGGUGAAUCUGCGAAUUCUGCUGUAUAUCUC [C11U G22A A28C U31A A45G], the self-cleavage is reported as 0.35.
For UAACAGGGGGUCACAGCAGAAGCAUUCACGUCGCAGCCCCCGUCAGAUUCAGGUGAAUCCGCGAAUUCUGCUGUAUGUCUC [C11U G24A U41C U51A U60C A77G], the self-cleavage was 0.04.
